Reference: PubChem BioAssay AID1347073 (National Center for Advancing Translational Sciences (NCATS), 2019)
Among all 45,000 compounds or so, about 200 (0.44%) were called active. Another 7% or so got no clear call; they are omitted. Calls follow the shape of the dose curve; as a rule, active = well fitted activation curve with a large enough effect; inconclusive = small, poorly fitted or top-dose-only effect; inactive = no such curve, though single readings can be large or run the other way. Some of the results follow.

Assay: qHTS of TDP-43 Inhibitors: NCGC Sytravon Library Screen; also: nearly all actives have a fitted effect of over 55% in size; as to growth rescue (activation): 0% is about no effect
Conditions: yeast TDP-43 toxicity rescue, BacTiter-Glo growth, 24 h; series mostly up to 46.1 µM; growth rescue (activation): at the top concentration
Outline: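 TDP-43-expressing yeast, pregrown in raffinose, seeded at OD600 0.02 in galactose medium with compound for 24 hr at 30 deg C. Growth read by BacTiter-Glo luminescence, so rescue of toxicity appears as activation.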
Potency is read from the fitted curve at half-maximal effect.

Row | Compound | growth rescue (activation) | Potency
1 | CC1CN(CC(=O)Nc2ccccc2Sc2ccccc2)CC(C)O1 (centres undefined) | inactive: -7.59% | –
2 | CCCC(C)NC(=O)COC(=O)c1ccc2c(c1)C(=O)N(Cc1ccco1)C2=O (centres undefined) | inactive: 2.3% | –
3 | COC(=O)c1cc2sc(C)cc2n1Cc1nc(-c2cccc(Br)c2)oc1C | inactive: 6.69% | –
4 | O=C(O)c1ccc(NC(=S)NC2CCCCC2)cc1 | inactive: 23.1% | –
5 | CCCNC(=O)COC(=O)c1ccccc1C(=O)c1ccc(Cl)c([N+](=O)[O-])c1 | inactive: -19.9% | –
6 | CCN(CC)S(=O)(=O)c1ccc(O)c(NC(=O)c2cc(-c3cc(OC)c(OC)c(OC)c3)nc3ccccc23)c1 | inactive: 16.3% | –
7 | O=C(NCc1ccccn1)c1ccc(CS(=O)(=O)Cc2ccc(Cl)cc2)o1 | inactive: 25.9% | –
8 | Cc1nc(C)n(CCNS(=O)(=O)c2ccccc2)n1 | inactive: -8.05% | –
9 | COc1cc(NC(=O)CN2C(=O)C(c3ccc(C)cc3)=NC23CCCCCC3)cc(OC)c1 | inactive: 10.5% | –
10 | CCCCN=C1SC(C(=O)Nc2sc3c(c2C(=O)OC)CCC3)C(N)=C1C(=O)N1CCOCC1 (centres undefined) | inactive: -21.7% | –
11 | COc1cc(C(=O)Oc2ccccc2/C=N/NC(=O)c2ccc(Cl)cc2Cl)cc(OC)c1OC | inactive: -18.9% | –
12 | O=C(O)CCn1cc(/C=C/C(=O)c2ccc(Cl)cc2)c(-c2cccc(Br)c2)n1 | inactive: 15% | –
13 | CC1(C)N=C(c2ccc(F)cc2)C(=O)N1CC(=O)Nc1ccccc1Cl | inactive: 14.9% | –
14 | O=c1cc(CO)oc(C(Nc2ccccn2)c2ccccc2Cl)c1O (centres undefined) | inactive: 2.89% | –
15 | Cc1ccc(Cn2c3ccccc3c3cnn(CC(=O)N4CCCCCC4)c(=O)c32)cc1 | inactive: 3.59% | –
16 | COCCn1c(SCC(=O)N2CC(=O)Nc3ccccc32)nc2ccccc2c1=O | inactive: 12.5% | –
17 | CC(=O)NCCNc1ccc([N+](=O)[O-])cn1 | inactive: 14.8% | –
18 | CCc1ccc2c(CN(C)Cc3ccc(OC(F)F)c(OC)c3)cc(=O)oc2c1 | inactive: 3.52% | –
19 | CCSc1nnc(NC(=O)Nc2cccc(C)c2)s1 | inactive: 2.05% | –
20 | Cc1ccc(S(=O)(=O)n2nc(C)c(Br)c2C)c(C)c1C | inactive: 25.7% | –
21 | COc1ccc(N(C(C)C(=O)Nc2ccc(S(=O)(=O)N3CCCCC3)cc2)S(C)(=O)=O)cc1 (centres undefined) | inactive: 2.94% | –
22 | CCN(CCn1cccn1)C(=O)CCc1nnc(CCCc2ccccc2)o1 | inactive: 4.58% | –
23 | CCCc1nnc(NC(=O)CCS(=O)(=O)Cc2ccccc2)s1 | inactive: -3.05% | –
24 | O=C(CON=C1c2ccccc2-c2ccccc21)NC12CC3CC(CC(C3)C1)C2 | inactive: -9.46% | –
25 | COc1ccc(-n2c(O)c(/C=N/NS(=O)(=O)c3cccc([N+](=O)[O-])c3)c3ccccc3c2=O)cc1OC | inactive: -8.92% | –
26 | O=C(c1cc2ccccc2oc1=O)N(Cc1cccc(Br)c1)C1CCS(=O)(=O)C1 (centres undefined) | inactive: 2.81% | –

Row | Compound | growth rescue (activation) | Potency
27 | NS(=O)(=O)c1ccc(CCNC(=O)CC(NC(=O)c2ccccc2Cl)c2ccccc2)cc1 (centres undefined) | inactive: 0.413% | –
28 | Cc1c(NC(=O)C(C)OC(=O)c2c3c(nc4ccccc24)CCC(C)C3)c(=O)n(-c2ccccc2)n1C (centres undefined) | inactive: 22.5% | –
29 | COC(=O)c1cc(CNC(=O)CC(C)c2ccccc2)ccc1OC (centres undefined) | inactive: -1.9% | –
30 | Cc1cccc(C)c1C(O)c1ncc(-c2cccc(C(F)(F)F)c2)[nH]1 (centres undefined) | inactive: 10.2% | –
31 | Cc1ccc(SCC(=O)NC(=O)NC(C)C)c(C)c1 | inactive: 31.3% | –
32 | CC(=O)Nc1ccc(-c2csc(Nc3cccc(C)n3)n2)cc1 | inactive: 15% | –
33 | C=CCN(C(=O)c1csnn1)C(C(=O)NCc1ccccc1)c1ccccc1F (centres undefined) | inactive: 0.592% | –
34 | COC(=O)C1=C(C)NC(C)=C(C(=O)OC)C1C(=O)OCCN1C(=O)c2ccccc2C1=O | inactive: -1.54% | –
35 | CCc1ccc(CN(C)Cc2nc(-c3cccc(Cl)c3)no2)nc1 | inactive: 10.5% | –
36 | CCN(CC)c1ncnc2c1ncn2[C@H]1CN(Cc2ccc3c(c2)OCO3)C[C@@H](CO)O1 | inactive: -5.42% | –
37 | COc1ccc(NC(=O)Cc2coc3cc(C)c(C(C)C)cc23)cc1S(=O)(=O)N1CCOCC1 | inactive: 26.5% | –
38 | Cc1ccc(S(=O)(=O)N(Cc2cccnc2)Cc2cc3ccccc3[nH]c2=O)cc1 | inactive: -2.28% | –
39 | CCN(c1ccccc1)S(=O)(=O)c1cc(C(=O)NCC(c2ccco2)N2CCCCC2)ccc1C (centres undefined) | inactive: -12.5% | –
40 | Cc1ccc(/C=C2\CCC3=C2OC(N)=C(C#N)C3c2ccc(C)cc2)cc1 (centres undefined) | inactive: 6.93% | –
41 | C=CCOc1ccccc1NC(=O)CN1C(=O)CNC1=O | inactive: 6.81% | –
42 | COc1ccc(NC(=O)CN(C)S(=O)(=O)c2ccc3nc(C)sc3c2)cc1Cl | inactive: 4.4% | –
43 | COc1ccc(C(=O)NC2CCN(C(=S)Nc3ccccc3)CC2)cc1 | inactive: 9.54% | –
44 | Cc1cc(C)nc(SC2CCCCC2NS(=O)(=O)c2ccccc2)n1 (centres undefined) | inactive: 23.8% | –
45 | Cc1ccc(S(=O)(=O)Nc2ncnc3ccccc23)cc1 | inactive: -11.2% | –
46 | CSc1ccccc1NC(=O)CN(C)CC(=O)Nc1ccc(S(=O)(=O)N2CCCC2)cc1 | inactive: -2.24% | –
47 | COc1cc(Cl)cc(C(=O)O)c1OCC(=O)O | inactive: -11.9% | –
48 | CC(CNC(=O)c1ccc(C(C)(C)C)cc1)CN(C)C (centres undefined) | inactive: 7.23% | –
49 | CCOC(=O)N1CCN(C(=O)c2ccc3c(=O)n(CCOC)c(=O)[nH]c3c2)CC1 | inactive: 16.3% | –
50 | O=C1C=C(N2CCCCCC2)C2(CCCCC2)O1 | inactive: 1.85% | –
51 | O=S(=O)(c1cccc(NC(=S)Nc2ccc(Br)cc2Cl)c1)N1CCOCC1 | inactive: 23.7% | –
52 | CC(O)CNc1nc2ccccc2n1CC(=O)NCCc1ccc(Cl)cc1 (centres undefined) | inactive: 8.84% | –

Row | Compound | growth rescue (activation) | Potency
53 | COc1ccc(/C=N/Nc2ccccn2)cc1OC | inactive: 9.11% | –
54 | CC1CCCN(C(=O)CNS(=O)(=O)c2cccs2)C1 (centres undefined) | inactive: 6.22% | –
55 | CC(=O)NC(Cc1ccc(F)cc1)C(=O)NC1CCN(C(=O)Nc2cccc(C)c2)CC1 (centres undefined) | inactive: 0.764% | –
56 | Cc1ccc(-n2c(SCc3nc4ccccc4c(=O)[nH]3)nnc2-c2ccccc2O)cc1 | inactive: -13.3% | –
57 | CC(C)N(C(=O)CN1C(=O)C(=O)c2ccccc21)c1ccccc1 | inactive: 33.2% | –
58 | O=[N+]([O-])c1ccc(N2CCN(c3ccccc3O)CC2)c(Cl)c1 | inactive: 23.9% | –
59 | CCC(c1nnc(SCC(=O)Nc2cccc(S(N)(=O)=O)c2)n1-c1ccc(OC)cc1)N(C)C (centres undefined) | inactive: 23.1% | –
60 | CCCC(=O)NC(=S)Nc1cccc2c(O)cccc12 | inactive: 3.38% | –
61 | COc1ccc(CCN(C)C(=O)c2ccc(S(=O)(=O)NCc3ccco3)cc2)cc1OC | inactive: -29.2% | –
62 | COc1cc(C=C(c2nc3ccccc3s2)c2nc3ccccc3s2)cc(OC)c1O | inactive: 23.4% | –
63 | Fc1cccc(F)c1/C=C/c1ccc2ccccc2n1 | inactive: -7.85% | –
64 | COc1ccc(OCC(=O)O/N=C(\N)Cc2cccs2)cc1 | inactive: -7.39% | –
65 | S=C(NCCc1ccccc1)NCC(c1ccco1)N1CCCCC1 (centres undefined) | inactive: 11.7% | –
66 | Cc1nn(Cc2ccc(Cl)cc2)c(Cl)c1/C=N/NC(=O)c1cccnc1 | inactive: 11.1% | –
67 | CCOC(=O)c1sc(-n2[nH]c(C)cc2=O)nc1C | inactive: 27.3% | –
68 | O=c1c2c3c(sc2nc(NCCO)n1Cc1ccco1)CCCCC3 | inactive: 12.7% | –
69 | Cc1cccc(OCc2nnc(SCC(=O)N3c4ccccc4Sc4ccc(Cl)cc43)o2)c1 | inactive: 21.6% | –
70 | O=Cc1cn[nH]c1-c1cccc([N+](=O)[O-])c1 | inactive: 6.44% | –
71 | CCCCN(CC(=O)NCc1ccc(F)cc1)C(=O)c1ccco1 | inactive: 9.68% | –
72 | CCc1ccc(OC(C)C(=O)N(Cc2ccccc2)C2CCS(=O)(=O)C2)cc1 (centres undefined) | inactive: 12.3% | –
73 | COC(=O)Cc1c(C(=O)OC)nnn1-c1ccc(OC)cc1 | inactive: -14.4% | –
74 | O=C(O)c1ccccc1CSc1nc2ccccc2s1 | – | active: 11.2 µM
75 | COc1ccc(NC(=O)Cc2ccc(C)cc2)c([N+](=O)[O-])c1 | inactive: 23.5% | –
76 | Clc1ccc(NC2=NCCC2)cc1Cl | inactive: 5.79% | –
77 | Cc1c(COc2ccc3ccccc3c2)nnn1CC(=O)NS(=O)(=O)c1ccccc1C(F)(F)F | inactive: 12.8% | –
78 | Cc1ccc(C)c(NC(=O)CCCCCCCCCCC2COCCO2)c1 (centres undefined) | inactive: 0.864% | –

Row | Compound | growth rescue (activation) | Potency
79 | CCCCC(OC(=O)c1ccco1)C(=O)NCc1ccc(C)cc1 (centres undefined) | inactive: 13.1% | –
80 | COc1cccc(OCC(O)CN2CCN(CCN3C(=O)c4cccc5cccc(c45)C3=O)CC2)c1 (centres undefined) | inactive: -5.07% | –
81 | O=[N+]([O-])c1c(Nc2cccc(O)c2)cc(Cl)c2nonc12 | inactive: -26.3% | –
82 | OCCN1CCN(c2ncnc3c2ncn3[C@H]2CN(Cc3ccncc3)C[C@@H](CO)O2)CC1 | inactive: 3.09% | –
83 | COc1ccc(C(=O)NCCNc2ccc([N+](=O)[O-])cc2)cc1 | inactive: 8.78% | –
84 | O=C(O)c1ccc(Cl)c(S(=O)(=O)Nc2ccccc2Cc2ccccc2)c1 | inactive: -0.847% | –
85 | Cc1ccc(C(=O)NC(=S)NCc2cccnc2)c(C)c1 | inactive: 5.93% | –
86 | CCOC(=O)C(NC(=O)c1cccc(Cl)c1)(Nc1nnc(C)s1)C(F)(F)F (centres undefined) | inactive: -2.45% | –
87 | CC(=O)NS(=O)(=O)c1ccc(NS(=O)(=O)c2ccccc2[N+](=O)[O-])cc1 | inactive: 30% | –
88 | Cc1cc(C)cc(NC(=O)C2CCN(c3nnc(-n4c(C)ccc4C)s3)CC2)c1 | inactive: 10.4% | –
89 | Cc1ccccc1NC(=O)C1CCCN(C(=O)Nc2ccc(F)cc2)C1 (centres undefined) | inactive: 1.2% | –
90 | O=C(CCc1ccccc1)Nc1cccc([N+](=O)[O-])c1 | inactive: 5.61% | –
91 | CCOC(=O)C1CCCN(C(=O)CCNC(=O)Cn2ccc3ccccc3c2=O)C1 (centres undefined) | inactive: 17.8% | –
92 | O=C(O)/C=C/C(=O)N1CCc2ccccc21 | inactive: 19% | –
93 | CN(C)CCNC(=O)c1ccc2c(=O)n(Cc3ccc(Cl)cc3)c(=S)[nH]c2c1 | inactive: -7.84% | –
94 | N#CC1=C(SCC(N)=O)NC(=O)CC1c1cccc2ccccc12 (centres undefined) | inactive: 7.68% | –
95 | O=c1cc(CN2CCc3ccccc32)c2ccc(O)cc2o1 | inactive: -7.93% | –
96 | CC1CN(C(=O)COC(=O)c2ccc(Cl)c(S(=O)(=O)N3CCCCC3)c2)CC(C)O1 (centres undefined) | inactive: 9.74% | –
97 | Cn1nccc1C(=O)Oc1ccc(/C=N/NC(=O)c2ccccc2O)cc1 | inactive: 4.92% | –
98 | C=CCNC(=S)N/N=C(\C)c1cccc(NC(C)=O)c1 | inactive: -2.63% | –
99 | Cc1nn(C(C)C(=O)N2CCc3ccccc3C2)c(=O)c2cc3occc3n12 (centres undefined) | inactive: -13.8% | –
100 | CCCc1ccc(C(O)c2ncc(-c3ccc(OC)cc3)[nH]2)cc1 (centres undefined) | inactive: 3.52% | –
101 | COc1ccc(N2C(=O)CS(=O)C(c3ccccc3)C2=O)cc1 (centres undefined) | inactive: -1.69% | –
102 | CC(C)Cc1nc2n[nH]c(N)c2c2c1CCCC2 | inactive: 8.62% | –
103 | N#Cc1nc(-c2ccccc2F)oc1N1CCN(C(=O)c2ccco2)CC1 | inactive: 10.5% | –
104 | COc1ccc(N(CC(=O)NC2CC3CCC2C3)S(=O)(=O)c2ccc(C)c([N+](=O)[O-])c2)cc1 (centres undefined) | inactive: 10.9% | –
